The source of these data is paper PMC4336329 (PLoS ONE, 2015).

The campaign covered roughly 310,000 compounds. About 14,000 (4.5%) showed an effect of 50% or more. Effects have a minus sign here. The list shows a part of the results.
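Further: peak tail current of the secondary pulse compared with the same well before compound.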

For the assay, the target named is human ether-à-go-go-related gene (hERG) potassium channel (human, UniProt Q12809). Kind of assay: primary screen, population patch clamp on CHO cells stably expressing hERG.
Sequence of human ether-à-go-go-related gene (hERG) potassium channel (Q12809 whole entry, looked up): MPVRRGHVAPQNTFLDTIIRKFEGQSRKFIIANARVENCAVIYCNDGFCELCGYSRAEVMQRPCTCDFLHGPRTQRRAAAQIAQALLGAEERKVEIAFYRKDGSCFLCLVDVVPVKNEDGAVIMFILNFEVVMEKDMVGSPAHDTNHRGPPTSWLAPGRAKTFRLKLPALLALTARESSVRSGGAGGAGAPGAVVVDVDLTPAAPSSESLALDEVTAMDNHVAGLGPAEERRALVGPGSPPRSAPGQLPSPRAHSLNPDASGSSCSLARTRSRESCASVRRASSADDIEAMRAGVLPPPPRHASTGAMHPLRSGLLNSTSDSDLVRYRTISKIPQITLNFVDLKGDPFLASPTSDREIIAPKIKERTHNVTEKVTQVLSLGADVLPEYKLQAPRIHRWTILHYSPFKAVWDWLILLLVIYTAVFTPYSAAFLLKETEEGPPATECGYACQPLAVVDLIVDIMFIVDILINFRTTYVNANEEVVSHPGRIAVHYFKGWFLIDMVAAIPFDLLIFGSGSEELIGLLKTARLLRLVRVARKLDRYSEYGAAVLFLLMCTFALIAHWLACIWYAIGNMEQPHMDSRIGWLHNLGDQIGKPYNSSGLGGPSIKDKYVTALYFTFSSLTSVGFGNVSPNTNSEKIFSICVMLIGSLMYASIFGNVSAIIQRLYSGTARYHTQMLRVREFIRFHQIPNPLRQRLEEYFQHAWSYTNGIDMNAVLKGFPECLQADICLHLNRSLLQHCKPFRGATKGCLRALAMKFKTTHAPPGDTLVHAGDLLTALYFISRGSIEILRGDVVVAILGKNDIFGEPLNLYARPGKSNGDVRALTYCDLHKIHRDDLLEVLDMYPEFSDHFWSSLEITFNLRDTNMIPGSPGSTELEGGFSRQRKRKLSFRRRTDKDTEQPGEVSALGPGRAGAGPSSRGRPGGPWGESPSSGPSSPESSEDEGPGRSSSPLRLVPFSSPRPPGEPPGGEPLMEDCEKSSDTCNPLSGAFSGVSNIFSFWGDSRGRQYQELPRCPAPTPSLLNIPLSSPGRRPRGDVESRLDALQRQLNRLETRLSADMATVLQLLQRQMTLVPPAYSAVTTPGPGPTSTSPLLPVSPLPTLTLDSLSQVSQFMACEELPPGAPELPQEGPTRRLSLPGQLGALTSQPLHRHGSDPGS
Regarding `CC(C)C(NS(=O)(=O)c1cccc2nsnc12)C(=O)N1CCc2ccccc2C1` (stereo not shown), the “hERG current change (%, negative = inhibition) at 10uM” value is reported as -2.3%.

Turning to `O=C(Nc1cccc2ccccc12)c1ccc([N+](=O)[O-])s1`, the “hERG current change (%, negative = inhibition) at 10uM” value amounted to 8.79%.

Take `O=C(c1ccc2c(c1)[nH]c(=S)n1c3ccccc3nc21)N1CCN(c2ncccn2)CC1`: the “hERG current change (%, negative = inhibition) at 10uM” value is on record as -2.52%.

Regarding `COC(=O)C1Cc2c([nH]c3ccccc23)C(C)N1` (stereo not shown), the “hERG current change (%, negative = inhibition) at 10uM” value is given as -9.61%.

For the compound `Cc1ccc(CN2CCN(Cc3cccn3-c3ccccn3)CC2CCO)cc1` (stereo not shown), the “hERG current change (%, negative = inhibition) at 10uM” value is recorded as -82%.

In the case of `CCc1ccccc1N(CC(=O)NCc1ccco1)C(=O)c1snc(C(N)=O)c1N`, the “hERG current change (%, negative = inhibition) at 10uM” value was -32.1%.

`Cn1cc(CN2CCC(C(=O)N3CCCC3)CC2)c(-c2ccccc2F)n1`: the “hERG current change (%, negative = inhibition) at 10uM” value is -4.8%.

With `Cc1ccc(-c2nn(C)c(=O)c3ccccc23)cc1S(=O)(=O)NCCN(C)C`, the “hERG current change (%, negative = inhibition) at 10uM” value is 4.35%.

`COC(=O)c1cccc(NC2CC(=O)N(c3ccc(OC)c(OC)c3)C2=O)c1` (stereo not shown): the “hERG current change (%, negative = inhibition) at 10uM” value is listed as 5.1%.

As to `COc1ccc(-c2nnc(NC(=O)c3cc(Cl)ccc3Cl)o2)cc1`, the “hERG current change (%, negative = inhibition) at 10uM” value is -8.99%.

Regarding `O=C(O)COc1ccc2oc3ccccc3c2c1`, the “hERG current change (%, negative = inhibition) at 10uM” value came to 22.8%.

For `COC(=O)C1CC(c2c(OC)cc(OC)cc2OC)=NO1` (stereo not shown), the “hERG current change (%, negative = inhibition) at 10uM” value turned out to be 4.02%.

For `Cc1cc(=O)[nH]c(CCl)n1`, the “hERG current change (%, negative = inhibition) at 10uM” value was found to be 32.7%.

With `COC(=O)/C=C/C(=O)N1CCN(c2ccccc2)CC1`, the “hERG current change (%, negative = inhibition) at 10uM” value was -11.2%.

For `O=C1CC(/C=C/c2cccnc2)=Nc2ccccc2N1`, the “hERG current change (%, negative = inhibition) at 10uM” value was found to be 14.1%.

Take `CSCCC(=O)N1CCCC(CO)(CCCc2ccccc2)C1` (stereo not shown): the “hERG current change (%, negative = inhibition) at 10uM” value is -8.88%.

Turning to `Cc1ccc(CNC(=O)Cn2c(=O)n(-c3ccccc3)c(=O)c3sccc32)cc1`, the “hERG current change (%, negative = inhibition) at 10uM” value was determined as 1.3%.

For `C#CCNc1cc(C)nc2ncnn12`, the “hERG current change (%, negative = inhibition) at 10uM” value was 10.3%.

With `CC(C)(C)OC(=O)N1CCC(CNC(=O)c2ccc(F)cc2)CC1`, the “hERG current change (%, negative = inhibition) at 10uM” value was determined as 2.89%.

Take `CC(C)OCCCn1c(=O)c2ccccc2n2c(CCC(=O)NC3CCN(Cc4ccccc4)CC3)nnc12`: the “hERG current change (%, negative = inhibition) at 10uM” value was -51.4%.

With `Clc1ccc(/C=N\Nc2ccccc2)cc1`, the “hERG current change (%, negative = inhibition) at 10uM” value turned out to be 13.8%.

For the compound `CCN(CC(=O)Nc1ccccc1C(F)(F)F)C(=O)CN1C(=O)NC(C)(c2ccccc2)C1=O` (stereo not shown), the “hERG current change (%, negative = inhibition) at 10uM” value is 18.6%.

As for `Cc1cccc(NC(=S)NCc2ccccn2)c1`, the “hERG current change (%, negative = inhibition) at 10uM” value worked out at 18.2%.

For `CCC(Oc1ccc2ccccc2c1)C(=O)O` (stereo not shown), the “hERG current change (%, negative = inhibition) at 10uM” value worked out at 13.8%.

As to `O=C(O)COc1nsnc1N1CCOCC1`, the “hERG current change (%, negative = inhibition) at 10uM” value worked out at 10.4%.

For `CC(OC(=O)Cc1ccc(Cl)cc1)C(=O)NCCC1=CCCCC1` (stereo not shown), the “hERG current change (%, negative = inhibition) at 10uM” value was 1.99%.

Turning to `Cc1ccc(C)c(N2CCN(S(=O)(=O)c3ccc4c(c3)NC(=O)CO4)CC2)c1`, the “hERG current change (%, negative = inhibition) at 10uM” value is given as 12.7%.

On to `O=C(O)/C=C/c1cn(-c2ccccc2)nc1-c1ccc2c(c1)OCCO2`, for which the “hERG current change (%, negative = inhibition) at 10uM” value is 10.1%.

On to `O=C1c2ccccc2-c2cccc(C(=O)N3CCCCC3)c21`, for which the “hERG current change (%, negative = inhibition) at 10uM” value stood at 2.9%.

With `COc1cccc(-n2nc3c(-n4ncc(C#N)c4N)nnc(C)c3c2C)c1`, the “hERG current change (%, negative = inhibition) at 10uM” value is -27.7%.

In the case of `Nc1cc(=O)[nH]c(=O)n1Cc1ccccc1`, the “hERG current change (%, negative = inhibition) at 10uM” value is reported as 12.1%.

For the compound `O=C(N/N=C\c1ccc(Cl)s1)c1cccs1`, the “hERG current change (%, negative = inhibition) at 10uM” value turned out to be 23.2%.

With `CCOC(=O)/C(=C/C1=CC(=C/N(C)C)/C(=O)O1)C(C)=O`, the “hERG current change (%, negative = inhibition) at 10uM” value amounted to 6.52%.

For `CC(=O)OC1C2CCC1C(N1CCCCC1)CC2.Cl` (stereo not shown), the “hERG current change (%, negative = inhibition) at 10uM” value was determined as 16.8%.

As for `Brc1ccc2ncc(Br)cc2c1`, the “hERG current change (%, negative = inhibition) at 10uM” value came out at 13.1%.

For the compound `Cc1ccc(C(=O)N2CCC(Cc3ccccc3)CC2)cc1[N+](=O)[O-]`, the “hERG current change (%, negative = inhibition) at 10uM” value is -63.8%.

Regarding `CC1(C)CC(=O)c2cnc(NC(=O)c3ccco3)nc2C1`, the “hERG current change (%, negative = inhibition) at 10uM” value was found to be 7.03%.

Consider `CCOC(=O)c1cc(S(=O)(=O)N2CCc3ccccc32)cn1C`, for which the “hERG current change (%, negative = inhibition) at 10uM” value is given as -0.504%.

As to `Cc1ccccc1C(=O)Nc1nnc(SC(C)C)s1`, the “hERG current change (%, negative = inhibition) at 10uM” value turned out to be 0.0104%.

Take `CC(C)C(=O)Nc1nnc(SCC(=O)NCC2CCCO2)s1` (stereo not shown): the “hERG current change (%, negative = inhibition) at 10uM” value was 0.5%.

Consider `O=C(CNC(=S)N(Cc1ccccc1)Cc1cccnc1)NC1CC1`, for which the “hERG current change (%, negative = inhibition) at 10uM” value is listed as -11.4%.

As for `O=C(Nc1nc(N2C(=O)c3ccccc3C2=O)n(-c2ccccc2)n1)c1ccc(Cl)cc1`, the “hERG current change (%, negative = inhibition) at 10uM” value is -7.9%.

As for `O=C(Oc1c(Cl)cc(Cl)c2ccccc12)N1CCCCC1`, the “hERG current change (%, negative = inhibition) at 10uM” value came out at 7.5%.

For `COc1cc(/C=N/Nc2nc3ccccc3o2)cc(OC)c1O`, the “hERG current change (%, negative = inhibition) at 10uM” value is on record as -6.58%.

Consider `CCOC(=O)N1CCN(C(=O)C2CC(=O)N(c3ccccc3)C2)CC1` (stereo not shown), for which the “hERG current change (%, negative = inhibition) at 10uM” value is reported as 5.31%.

On to `COc1ccc(NS(=O)(=O)c2ccc(N3CCOCC3)c(NC(=O)c3cccc(F)c3)c2)cc1`, for which the “hERG current change (%, negative = inhibition) at 10uM” value is recorded as -17.9%.
